Publication PMC8986097
No constants are given. Whether binding was seen depends on the method and setting. Some entries that bind do so weakly or less than the wild type. Tags and fused reporters may be left off the sequences shown.

B1: Yen1, wild-type full-length, Activator Domain fusion, two-hybrid prey (protein, UniProt P40028 1-759)
chain: MGVSQIWEFLKPYLQDSRIPLRKFVIDFNKSQKRAPRIAIDAYGWLFECGFIQNIDISARSRSRSRSPTRSPRDSDIDSSQEYYGSRSYTTTGKAVINFISRLKELLSLNVEFLLVFDGVMKPSFKRKFNHEQNATTCDDEKEYYSSWEQHVKNHEVYGNCKGLLAPSDPEFISLVRKLLDLMNISYVIACGEGEAQCVWLQVSGAVDFILSNDSDTLVFGGEKILKNYSKFYDDFGPSSITSHSPSRHHDSKESFVTVIDLPKINKVAGKKFDRLSLLFFSVLLGADYNRGVKGLGKNKSLQLAQCEDPNFSMEFYDIFKDFNLEDLTSESLRKSRYRLFQKRLYLYCKDHSVELFGRNYPVLLNQGSFEGWPSTVAIMHYFHPIVQPYFDEEVLSDKYINMAGNGHYRNLNFNELKYFLQSLNLPQISSFDKWFHDSMHEMFLLREFLSIDESDNIGKGNMRITEEKIMNIDGGKFQIPCFKIRYTTFLPNIPISSQSPLKRSNSPSRSKSPTRRQMDIMEHPNSLWLPKYLIPQSHPLVIQYYETQQLIQKEKEKKGKKSNKSRLPQKNNLDEFLRKHTSPIKSIGKVGESRKEILEPVRKRLFVDTDEDTSLEEIPAPTRLTTVDEHSDNDDDSLIFVDEITNSQSVLDSSPGKRIRDLTQDEQVDVWKDVIEISPIKKSRTTNAEKNPPESGLKSRSSITINARLQGTKMLPPNLTAPRLEREHSSVLDQLVTDAQDTVDRFVACDSDSSSTIE
B2: Yen1 C-terminal part (amino acids 354 to 759), Activator Domain fusion, two-hybrid prey (domain or fragment, UniProt P40028 354-759)
chain: VELFGRNYPVLLNQGSFEGWPSTVAIMHYFHPIVQPYFDEEVLSDKYINMAGNGHYRNLNFNELKYFLQSLNLPQISSFDKWFHDSMHEMFLLREFLSIDESDNIGKGNMRITEEKIMNIDGGKFQIPCFKIRYTTFLPNIPISSQSPLKRSNSPSRSKSPTRRQMDIMEHPNSLWLPKYLIPQSHPLVIQYYETQQLIQKEKEKKGKKSNKSRLPQKNNLDEFLRKHTSPIKSIGKVGESRKEILEPVRKRLFVDTDEDTSLEEIPAPTRLTTVDEHSDNDDDSLIFVDEITNSQSVLDSSPGKRIRDLTQDEQVDVWKDVIEISPIKKSRTTNAEKNPPESGLKSRSSITINARLQGTKMLPPNLTAPRLEREHSSVLDQLVTDAQDTVDRFVACDSDSSSTIE
B3: Yen1 truncated version lacking the C-terminal part (cut-off at amino acid 354), Activator Domain fusion, two-hybrid prey (domain or fragment, UniProt P40028 1-354)
chain: MGVSQIWEFLKPYLQDSRIPLRKFVIDFNKSQKRAPRIAIDAYGWLFECGFIQNIDISARSRSRSRSPTRSPRDSDIDSSQEYYGSRSYTTTGKAVINFISRLKELLSLNVEFLLVFDGVMKPSFKRKFNHEQNATTCDDEKEYYSSWEQHVKNHEVYGNCKGLLAPSDPEFISLVRKLLDLMNISYVIACGEGEAQCVWLQVSGAVDFILSNDSDTLVFGGEKILKNYSKFYDDFGPSSITSHSPSRHHDSKESFVTVIDLPKINKVAGKKFDRLSLLFFSVLLGADYNRGVKGLGKNKSLQLAQCEDPNFSMEFYDIFKDFNLEDLTSESLRKSRYRLFQKRLYLYCKDHSV
B4: Yen1-1xHA, wild-type, purified (protein, UniProt P40028 1-759)
chain: MGVSQIWEFLKPYLQDSRIPLRKFVIDFNKSQKRAPRIAIDAYGWLFECGFIQNIDISARSRSRSRSPTRSPRDSDIDSSQEYYGSRSYTTTGKAVINFISRLKELLSLNVEFLLVFDGVMKPSFKRKFNHEQNATTCDDEKEYYSSWEQHVKNHEVYGNCKGLLAPSDPEFISLVRKLLDLMNISYVIACGEGEAQCVWLQVSGAVDFILSNDSDTLVFGGEKILKNYSKFYDDFGPSSITSHSPSRHHDSKESFVTVIDLPKINKVAGKKFDRLSLLFFSVLLGADYNRGVKGLGKNKSLQLAQCEDPNFSMEFYDIFKDFNLEDLTSESLRKSRYRLFQKRLYLYCKDHSVELFGRNYPVLLNQGSFEGWPSTVAIMHYFHPIVQPYFDEEVLSDKYINMAGNGHYRNLNFNELKYFLQSLNLPQISSFDKWFHDSMHEMFLLREFLSIDESDNIGKGNMRITEEKIMNIDGGKFQIPCFKIRYTTFLPNIPISSQSPLKRSNSPSRSKSPTRRQMDIMEHPNSLWLPKYLIPQSHPLVIQYYETQQLIQKEKEKKGKKSNKSRLPQKNNLDEFLRKHTSPIKSIGKVGESRKEILEPVRKRLFVDTDEDTSLEEIPAPTRLTTVDEHSDNDDDSLIFVDEITNSQSVLDSSPGKRIRDLTQDEQVDVWKDVIEISPIKKSRTTNAEKNPPESGLKSRSSITINARLQGTKMLPPNLTAPRLEREHSSVLDQLVTDAQDTVDRFVACDSDSSSTIE
B5: Yen1 SIM1Δ (D635A D636A D637A), HA-tagged, purified (protein, UniProt P40028 1-759)
chain: MGVSQIWEFLKPYLQDSRIPLRKFVIDFNKSQKRAPRIAIDAYGWLFECGFIQNIDISARSRSRSRSPTRSPRDSDIDSSQEYYGSRSYTTTGKAVINFISRLKELLSLNVEFLLVFDGVMKPSFKRKFNHEQNATTCDDEKEYYSSWEQHVKNHEVYGNCKGLLAPSDPEFISLVRKLLDLMNISYVIACGEGEAQCVWLQVSGAVDFILSNDSDTLVFGGEKILKNYSKFYDDFGPSSITSHSPSRHHDSKESFVTVIDLPKINKVAGKKFDRLSLLFFSVLLGADYNRGVKGLGKNKSLQLAQCEDPNFSMEFYDIFKDFNLEDLTSESLRKSRYRLFQKRLYLYCKDHSVELFGRNYPVLLNQGSFEGWPSTVAIMHYFHPIVQPYFDEEVLSDKYINMAGNGHYRNLNFNELKYFLQSLNLPQISSFDKWFHDSMHEMFLLREFLSIDESDNIGKGNMRITEEKIMNIDGGKFQIPCFKIRYTTFLPNIPISSQSPLKRSNSPSRSKSPTRRQMDIMEHPNSLWLPKYLIPQSHPLVIQYYETQQLIQKEKEKKGKKSNKSRLPQKNNLDEFLRKHTSPIKSIGKVGESRKEILEPVRKRLFVDTDEDTSLEEIPAPTRLTTVDEHSDNAAASLIFVDEITNSQSVLDSSPGKRIRDLTQDEQVDVWKDVIEISPIKKSRTTNAEKNPPESGLKSRSSITINARLQGTKMLPPNLTAPRLEREHSSVLDQLVTDAQDTVDRFVACDSDSSSTIE
B6: Yen1 SIM2Δ (V675A E677A), HA-tagged, purified (protein, UniProt P40028 1-759)
chain: MGVSQIWEFLKPYLQDSRIPLRKFVIDFNKSQKRAPRIAIDAYGWLFECGFIQNIDISARSRSRSRSPTRSPRDSDIDSSQEYYGSRSYTTTGKAVINFISRLKELLSLNVEFLLVFDGVMKPSFKRKFNHEQNATTCDDEKEYYSSWEQHVKNHEVYGNCKGLLAPSDPEFISLVRKLLDLMNISYVIACGEGEAQCVWLQVSGAVDFILSNDSDTLVFGGEKILKNYSKFYDDFGPSSITSHSPSRHHDSKESFVTVIDLPKINKVAGKKFDRLSLLFFSVLLGADYNRGVKGLGKNKSLQLAQCEDPNFSMEFYDIFKDFNLEDLTSESLRKSRYRLFQKRLYLYCKDHSVELFGRNYPVLLNQGSFEGWPSTVAIMHYFHPIVQPYFDEEVLSDKYINMAGNGHYRNLNFNELKYFLQSLNLPQISSFDKWFHDSMHEMFLLREFLSIDESDNIGKGNMRITEEKIMNIDGGKFQIPCFKIRYTTFLPNIPISSQSPLKRSNSPSRSKSPTRRQMDIMEHPNSLWLPKYLIPQSHPLVIQYYETQQLIQKEKEKKGKKSNKSRLPQKNNLDEFLRKHTSPIKSIGKVGESRKEILEPVRKRLFVDTDEDTSLEEIPAPTRLTTVDEHSDNDDDSLIFVDEITNSQSVLDSSPGKRIRDLTQDEQVDVWKDAIAISPIKKSRTTNAEKNPPESGLKSRSSITINARLQGTKMLPPNLTAPRLEREHSSVLDQLVTDAQDTVDRFVACDSDSSSTIE

Target: Smt3 (SUMO), DNA Binding Domain fusion, two-hybrid bait (S. cerevisiae) [SUMO: Q12306]
Experiment: two-hybrid; Smt3 as bait (BD fusion), Yen1 versions as prey (AD fusion); growth on selective medium lacking leucine, tryptophan and histidine, with 3-aminotriazole

How did the binding turn out when B1 was run?
Its binding is “binds”.

Which binding does the source give for B2 here?
The binding was “binds”.

With B3 as the binder, how does the binding read?
The binding was “no binding”.

Target: GST-Smt3 (S. cerevisiae) [SUMO: Q12306]
Experiment: pull-down; purified GST-Smt3 bound to glutathione matrix (GST buffer: 25 mM Tris-HCl pH 8.0, 150 mM NaCl, 1 mM DTT); purified wild-type or mutated Yen1 loaded, 3 min at 4°C, washed; retained proteins by immunoblot; both purified

Which binding does the source give for B4 here?
Its binding is “binds”.

For B5, which binding is on record?
The binding was “binds”.

B6 was tested. Which binding did it give?
Its binding is “binds”.
